# In PubChem BioAssay (NCATS):
# Inconclusive means that the source gave no clear call. Such entries were picked first, then a sample of the others. No potency is given beside an inconclusive call; the fits are too rough. The source made the active and inactive calls. Calls follow the shape of the dose curve; as a rule, active = well fitted inhibition curve with a large enough effect; inconclusive = small, poorly fitted or top-dose-only effect; inactive = flat fitted curve, though single readings scatter.
# Test system: Zika virus NS2B-NS3 protease
# Assay: Primary screen GU AMC qHTS for Zika virus inhibitors (AID 1347154); also: nearly all actives have a fitted effect of over 70% in size;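 as to activity change, negative = inhibition: 0% = no-inhibitor control and -100% = no-enzyme control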
# Details: Zika NS2B-NS3 unlinked protease, AMC fluorogenic substrate; series mostly up to 54.1 µM; activity change, negative = inhibition: at the top concentration
# Outline: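 Fluorogenic AMC-substrate cleavage by noncovalent NS2B-NS3 protease complex (25 nM, pH 8.0 Tris buffer with Tween 20) followed for 15 minutes at room temperature (~20% conversion). Percent inhibition from ex340/em450 signal change, fitted by 4-parameter Hill equation.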
# Potency is read from the fitted curve at half-maximal effect; tags tell the direction and shape of the fitted curve.
Compound,"activity change, negative = inhibition",Potency
O=S1(=O)OC(c2ccc(O)cc2)(c2ccc(O)cc2)c2ccccc21,inactive: -5.61%,–
COc1ccc(S(=O)(=O)Nc2cc(-c3c(O)ccc4ccccc34)c(O)c3ccccc23)cc1,–,active: 24.1 µM
Cc1cc(O)c(C(C)C)cc1Cl,inactive: -10.6%,–
CC(C)(C)NC(=O)[C@H]1CC[C@H]2[C@@H]3CC[C@H]4NC(=O)C=C[C@]4(C)[C@H]3CC[C@]12C,–,"inconclusive [inhibitor, single point]"
OC1CCC(Nc2ncc3nc(Nc4c(F)cc(F)cc4F)n([C@@H]4CCOC4)c3n2)CC1 (stereo partly specified),–,active: 24.1 µM
Cc1c(-c2cccc3c(CCCOc4cccc5ccccc45)c(C(=O)O)n(Cc4cccnc4)c23)c(COc2ccc(N3CCN([S+](=O)([O-])N(C)C)CC3)cc2)nn1C,–,"inconclusive [inhibitor, partial curve]"
COc1ccccc1OCC(O)COC(N)=O (stereo unspecified),–,inactive
Cc1ncc(-c2ccnc(Nc3ccc(S(C)(=O)=O)cc3)n2)n1C(C)C,–,"inconclusive [inhibitor, single point]"
O[C@@H](CNC[C@H](O)[C@H]1CCc2cc(F)ccc2O1)[C@@H]1CCc2cc(F)ccc2O1,–,inactive
Cc1cc2nc3c(=O)[nH]c(=O)nc-3n(C[C@H](O)[C@H](O)[C@H](O)CO)c2cc1C,–,"inconclusive [inhibitor, partial curve]"
NS(=O)(=O)Cc1noc2ccccc12,–,inactive
CC(C)(C)CC(C)(C)c1ccc(O)c(Cc2ccc(Cl)cc2Cl)c1,–,"inconclusive [inhibitor, partial curve]"
Oc1ccc(Cl)cc1Sc1cc(Cl)ccc1O,–,"inconclusive [inhibitor, partial curve]"
O=C(CCCCCCC(=O)Nc1ccc([C@H]2O[C@@H](CSc3nc(-c4ccccc4)c(-c4ccccc4)o3)C[C@@H](c3ccc(CO)cc3)O2)cc1)NO,–,"inconclusive [inhibitor, single point]"
Cc1ccc(NC(=O)Nc2cc(C(F)(F)F)ccc2F)cc1Nc1ccc2c(c1)NC(=O)C2=Cc1ccc[nH]1,–,"inconclusive [inhibitor, partial curve, poor fit]"
CCCCCCCCCCCCCCCC[N+](C)(C)CCN(Cc1ccc(OC)cc1)c1ncccn1,–,"inconclusive [inhibitor, full curve]"
C[n+]1c2cc(N)ccc2cc2ccc(N)cc21 (tested in a mixture with another compound),–,"inconclusive [inhibitor, single point]"
Nc1ncnc2nc[nH]c12,inactive: -3.53%,–

Compound,"activity change, negative = inhibition",Potency
COc1c(C)c2c(c(O)c1CC=C(C)CCC(=O)O)C(=O)OC2,–,"inconclusive [inhibitor, partial curve]"
CCOc1ccc2nc3cc(N)ccc3c(N)c2c1,–,active: 31.6 µM
Nc1cccc2c1C(=O)N(C1CCC(=O)NC1=O)C2=O (stereo unspecified),–,"inconclusive [inhibitor, full curve, poor fit]"
CCN1CCN(CC(=O)Nc2ccc(-c3cccc4c(=O)cc(N5CCOCC5)oc34)c3sc4ccccc4c23)CC1,–,"inconclusive [inhibitor, partial curve]"
CCCCCCCCCCCCCCCC[N+](C)(C)Cc1ccccc1,–,"inconclusive [inhibitor, partial curve]"
O=C1OC2(c3ccc(O)cc3Oc3cc(O)ccc32)c2ccccc21,–,"inconclusive [inhibitor, partial curve, poor fit]"
CCCCN1C[C@H](O)[C@@H](O)[C@H](O)[C@H]1CO,inactive: 5.37%,–
Oc1cc2c(cc1O)C1c3ccc(O)c(O)c3OCC1(O)C2 (stereo unspecified),–,active: 24.1 µM
N[C@H](Cc1c[nH]c2ccccc12)C(=O)O,inactive: -8.92%,–
CCn1cc(C(=O)O)c(=O)c2cc(F)c(N3CCN(C)CC3)cc21,–,"inconclusive [inhibitor, single point]"
C[C@@H](Oc1cc(-c2cnn(C3CCNCC3)c2)cnc1N)c1c(Cl)ccc(F)c1Cl,inactive: 2.18%,–
COc1cc(Nc2ncc(F)c(Nc3ccc4c(n3)N(COP(=O)(O)O)C(=O)C(C)(C)O4)n2)cc(OC)c1OC,–,"inconclusive [inhibitor, full curve]"
CCCCCCCCCCCCCCCCCC(=O)OCC(O)CO (stereo unspecified),inactive: -3.25%,–
O=C1N=C(O)CN1/N=C/c1ccc(-c2ccc([N+](=O)[O-])cc2)o1,–,"inconclusive [inhibitor, single point]"
Cn1cc(C=CC(=O)c2cccc(F)c2)cc1C=CC(=O)NO,–,"inconclusive [inhibitor, single point]"
CC(=O)O[C@H]1C[C@@H]2CC[C@H]3[C@H]4C[C@H]([N+]5(C)CCCCC5)[C@@H](OC(C)=O)[C@@]4(C)CC[C@@H]3[C@@]2(C)C[C@H]1[N+]1(C)CCCCC1,–,"inconclusive [inhibitor, single point]"
Cc1ccc(S(=O)(=O)Nc2cc(Cl)ccc2C(=O)Nc2nc(-c3ccccc3)cs2)cc1,–,"inconclusive [inhibitor, partial curve]"
CC(C)Oc1cc(Nc2nc(N[C@@H](C)c3ccc(F)cn3)ncc2Cl)[nH]n1,–,"inconclusive [inhibitor, full curve, poor fit]"
